Results published in PubChem BioAssay AID1963576 (National Center for Advancing Translational Sciences (NCATS), 2024).
Among all 46,000 compounds or so, about 60 (0.1%) were called active. Inconclusive results (about 3%) are left out. Calls follow the shape of the dose curve; as a rule, active = well fitted inhibition curve with a large enough effect; inconclusive = small, poorly fitted or top-dose-only effect; inactive = no such curve, though single readings can be large or run the other way. The list shows a part of the results.

Test: Primary qHTS assay for Inhibitors of ovarian cancer metastasis using an organotypic tumor microenvironment (TME) model. Also: nearly all actives have a fitted effect of over 65% in size.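 As to activity change, negative = inhibition: plate controls were DMSO wells for no effect and tomatine positive control wells for full effect.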
Details: SKOV3ip1-GFP adhesion/invasion on 3D omental model, fluorescence; series mostly up to 45.8 µM; activity change, negative = inhibition: at the top concentration
Procedure, shortened: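 Primary human omental fibroblast/mesothelial 3D culture pre-formed 48 h. SKOV3ip1-GFP cells added with compounds (0.36-46 umol/L), incubated 2 h RT/16 h 37 C, fixed; GFP cells quantified at 488/509 nm.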

Activity change, negative = inhibition, inactive:
Cc1ccccc1NC(=O)CS(=O)(=O)c1cccc2nsnc12 -11%, COc1ccc(NC(=O)CSc2c3c(nc4ccc(Cl)cc24)CCCC3)cc1Cl -11.7%, CCOc1ccc(C2C(C(=O)Nc3ccc(OC)cc3)=C(C)Nc3nc(SCc4ccc(Cl)cc4)nn32)cc1 (stereo not drawn) 2.46%, O=C(Nc1ccc(Br)cc1)N1CCC(CN2CCCC2)CC1 13.7%, CCNC(=O)c1c(NC(=O)COc2ccc(F)cc2)sc2c1CCCC2 2.64%, CCc1c(C)sc2c1CCN(C(=O)Nc1ccccc1C(=O)OC)C2c1ccc(F)cc1 (stereo not drawn) 7.65%, CCCC12CN3CC(C)(CN(C1)C3c1ccccc1Cl)C2=O (stereo not drawn) 5.16%, O=C(c1ccc2c(c1)N(Cc1ccc(F)cc1)CCS2)N1CCN(c2ccccc2)CC1 2.08%, Cc1cccc2c1CC[C@H](CN1CCC(c3c(Cl)cccc3Cl)CC1)C[C@@H]2O 7.93%, COc1ccc2c(c1)CC(C(=O)NCCN1CCN(c3cccc(Cl)c3)CC1)CO2 (stereo not drawn) 2.13%, CCCc1ccc(OCC(=O)Nc2scc(-c3cccs3)c2C(=O)OC)cc1 -3.02%, Cc1ccc(CNC(=O)c2sc3nc4n(c(=O)c3c2C)CCCC4)cc1 1.2%, Cc1nc(Oc2ccccc2C)c2oc3ccccc3c2n1 3.1%, COc1cccc(NC(=O)CN(C)S(=O)(=O)c2cccs2)c1 7.38%, CCC(=O)N1CCc2cc(CNC(=O)Nc3ccccc3Cl)ccc21 9.24%, CCOc1cc(C#N)c(NC(=O)c2cccc(S(=O)(=O)N3CCOCC3)c2)cc1OCC -5.1%, CCCCCCCCCCCC1=C(O)C(=O)C=C(O)C1=O -21.1%, COc1cc(CNC(=O)CSCc2nc3cccnc3n2C2CCCCC2)cc(OC)c1OC 6.25%, CCCS(=O)(=O)N1CC(=O)N(c2ccccc2F)C(C)(C(=O)NC2CCCCCC2)C1 (stereo not drawn) 20.7%, CCc1ccc(NC(=O)c2cc(S(=O)(=O)N3CCCC3)ccc2F)cc1 3.24%, Cc1ccc(C(=O)Nc2ccc3c(c2)N(C)C(=O)c2ccccc2S3)cc1 5.36%, CC(C(=O)NCc1ccccc1)N1Cc2ccccc2C1=O (stereo not drawn) 1.84%, CCC1CCCCN1CCCNC(=O)c1ccc2c(c1)N(Cc1ccccc1F)C(=O)c1ccccc1S2(=O)=O (stereo not drawn) -17.3%

outcome, inactive:
COc1ccc(N2CCN(CCCNC(=O)c3ccc4nc(CCc5ccccc5)oc4c3)CC2)cc1, O=C(CCNS(=O)(=O)c1ccc2c(c1)CCCC(=O)N2)NCc1ccccc1Cl, Cc1ccc(C)c(NC(=O)CCc2nc(-c3ccc(C(C)(C)C)cc3)no2)c1, COc1ccc(CCNC(=O)c2cc(C)nc3c2c(C)nn3-c2ccccc2)cc1OC, CC1CCN(C(=O)CSc2nc(-c3ccc(C(C)C)cc3)no2)CC1
